# Experimental data from the supplement of paper PMC8728848.
# This is one part of the list.
# B1: SP16664D-bth-476-27-476 (Bacteroides thetaiotaomicron) (protein)
# chain: DDLEVGKNIDESAYSGIYENNAYLRDGKSNLVSKVVELHGETYATTVKMGLSKTPNTATSAKVKIDAAYLETYNKAHNTDFALYPQDLVTFANEGILTVNANTKSAEVEMTIRAGEGLQEDKTYAIPVAISDQSSDITIKDEDAKHCIYLVKDMRNAGDAYKGEGVMQGYLFFEVNDVNPLNTLSFQLENGKLLWDVVVLFAANINYDAEAGRPRVQCNPNVQYLLDNNETLLQPLRRRGVKVLLGLLGNHDITGLAQLSEQGAKDFAREVAQYCKAYNLDGVNYDDEYSNSPDLSNPSLTNPSTAAAARLCYETKQAMPDKLVTVFDWGQMYGVATVDGVDAKEWIDIVVANYGSAAYPIGQMTKKQCSGISMEFNLGGGGSLSASKAQSMIDGGYGWFMGFAPSPAKYGSVFSRLQGGGEVLYGSNVAAPTIFYKKNDPTPYKYPDDL
# Assays:
# Assay in all cases: glycan array binding signal (z-score within array); higher = stronger binding
# Settings in all cases: glycan notation: IUPAC condensed, linker removed
# [1] = target: Neu5Ac(a2-3)Gal(b1-4)GlcNAc(b1-6)GalNAc
# How it was run: (§1)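 The binding signal is a Z-score computed within each array and averaged over linkers. Arrays of the same protein sequence at different concentrations or buffers were also averaged together. Data originate from 3228 arrays in the Consortium for Functional Glycomics database, kept only where the protein sequence was available.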
# [2] = target: Neu5Ac(a2-3)Gal(b1-4)GlcNAc(b1-6)[Gal(b1-3)]GalNAc
# How it was run: as §1
# [3] = target: Neu5Ac(a2-3)Gal(b1-4)GlcNAc(b1-6)[Neu5Ac(a2-3)Gal(b1-3)]GalNAc
# How it was run: as §1
# [4] = target: Neu5Ac(a2-3)Gal(b1-4)GlcNAc6S
# How it was run: as §1
# [5] = target: Neu5Ac(a2-3)Gal(b1-4)[Fuc(a1-3)]GlcNAc
# How it was run: as §1
# [6] = target: Neu5Ac(a2-3)Gal(b1-4)[Fuc(a1-3)]GlcNAc(b1-2)Man
# How it was run: as §1
# [7] = target: Neu5Ac(a2-3)Gal(b1-4)[Fuc(a1-3)]GlcNAc(b1-3)Gal
# How it was run: as §1
# [8] = target: Neu5Ac(a2-3)Gal(b1-4)[Fuc(a1-3)]GlcNAc(b1-3)Gal(b1-4)GlcNAc
# How it was run: as §1
# [9] = target: Neu5Ac(a2-3)Gal(b1-4)[Fuc(a1-3)]GlcNAc(b1-3)Gal(b1-4)[Fuc(a1-3)]GlcNAc(b1-3)Gal(b1-4)[Fuc(a1-3)]GlcNAc
# How it was run: as §1
# [10] = target: Neu5Ac(a2-3)Gal(b1-4)[Fuc(a1-3)]GlcNAc(b1-3)GalNAc
# How it was run: as §1
# [11] = target: Neu5Ac(a2-3)Gal(b1-4)[Fuc(a1-3)]GlcNAc(b1-6)[Gal(b1-3)]GalNAc
# How it was run: as §1
# [12] = target: Neu5Ac(a2-3)Gal(b1-4)[Fuc(a1-3)]GlcNAc(b1-6)[Neu5Ac(a2-3)Gal(b1-3)]GalNAc
# How it was run: as §1
# [13] = target: Neu5Ac(a2-3)Gal(b1-4)[Fuc(a1-3)]GlcNAc6S
# How it was run: as §1
# [14] = target: Neu5Ac(a2-3)Gal6S(b1-4)GlcNAc
# How it was run: as §1
# [15] = target: Neu5Ac(a2-3)Gal6S(b1-4)[Fuc(a1-3)]GlcNAc
# How it was run: as §1
# Neu5Ac(a2-3)GalNAc = target: Neu5Ac(a2-3)GalNAc
# How it was run: as §1
# [16] = target: Neu5Ac(a2-3)GalNAc(b1-4)GlcNAc
# How it was run: as §1
# [17] = target: Neu5Ac(a2-3)[GalNAc(b1-4)]Gal(b1-4)Glc
# How it was run: as §1
# [18] = target: Neu5Ac(a2-3)[GalNAc(b1-4)]Gal(b1-4)GlcNAc
# How it was run: as §1
# [19] = target: Neu5Ac(a2-3)[GalNAc(b1-4)]Gal(b1-4)GlcNAc(b1-3)GalNAc
# How it was run: as §1
# [20] = target: Neu5Ac(a2-3)[Neu5Ac(a2-6)]GalNAc
# How it was run: as §1
# Neu5Ac(a2-6)Gal = target: Neu5Ac(a2-6)Gal
# How it was run: as §1
# [21] = target: Neu5Ac(a2-6)Gal(b1-3)GlcNAc(b1-3)[Gal(b1-4)GlcNAc(b1-6)]Gal(b1-4)Glc
# How it was run: as §1
# Neu5Ac(a2-6)Gal(b1-4)Glc = target: Neu5Ac(a2-6)Gal(b1-4)Glc
# How it was run: as §1
# [22] = target: Neu5Ac(a2-6)Gal(b1-4)GlcNAc
# How it was run: as §1
# [23] = target: Neu5Ac(a2-6)Gal(b1-4)GlcNAc(b1-2)Man
# How it was run: as §1
# [24] = target: Neu5Ac(a2-6)Gal(b1-4)GlcNAc(b1-2)Man(a1-3)Man(b1-4)GlcNAc(b1-4)GlcNAc
# How it was run: as §1
# [25] = target: Neu5Ac(a2-6)Gal(b1-4)GlcNAc(b1-2)Man(a1-3)[Gal(b1-4)GlcNAc(b1-2)Man(a1-6)]Man(b1-4)GlcNAc(b1-4)GlcNAc
# How it was run: as §1
# [26] = target: Neu5Ac(a2-6)Gal(b1-4)GlcNAc(b1-2)Man(a1-3)[GlcNAc(b1-2)Man(a1-6)]Man(b1-4)GlcNAc(b1-4)GlcNAc
# How it was run: as §1
# [27] = target: Neu5Ac(a2-6)Gal(b1-4)GlcNAc(b1-2)Man(a1-3)[GlcNAc(b1-4)][Neu5Ac(a2-6)Gal(b1-4)GlcNAc(b1-2)Man(a1-6)]Man(b1-4)GlcNAc(b1-4)GlcNAc
# How it was run: as §1
# [28] = target: Neu5Ac(a2-6)Gal(b1-4)GlcNAc(b1-2)Man(a1-3)[Man(a1-6)]Man(b1-4)GlcNAc(b1-4)GlcNAc
# How it was run: as §1
# [29] = target: Neu5Ac(a2-6)Gal(b1-4)GlcNAc(b1-2)Man(a1-3)[Neu5Ac(a2-3)Gal(b1-4)GlcNAc(b1-2)Man(a1-6)]Man(b1-4)GlcNAc(b1-4)GlcNAc
# How it was run: as §1
# [30] = target: Neu5Ac(a2-6)Gal(b1-4)GlcNAc(b1-2)Man(a1-3)[Neu5Ac(a2-6)Gal(b1-4)GlcNAc(b1-2)Man(a1-6)]Man(b1-4)GlcNAc(b1-4)GlcNAc
# How it was run: as §1
# [31] = target: Neu5Ac(a2-6)Gal(b1-4)GlcNAc(b1-2)Man(a1-3)[Neu5Ac(a2-6)Gal(b1-4)GlcNAc(b1-2)Man(a1-6)]Man(b1-4)GlcNAc(b1-4)[Fuc(a1-6)]GlcNAc
# How it was run: as §1
# [32] = target: Neu5Ac(a2-6)Gal(b1-4)GlcNAc(b1-2)Man(a1-6)Man(b1-4)GlcNAc(b1-4)GlcNAc
# How it was run: as §1
# [33] = target: Neu5Ac(a2-6)Gal(b1-4)GlcNAc(b1-2)Man(a1-6)[Gal(b1-4)GlcNAc(b1-2)Man(a1-3)]Man(b1-4)GlcNAc(b1-4)GlcNAc
# How it was run: as §1
# [34] = target: Neu5Ac(a2-6)Gal(b1-4)GlcNAc(b1-2)Man(a1-6)[GlcNAc(b1-2)Man(a1-3)]Man(b1-4)GlcNAc(b1-4)GlcNAc
# How it was run: as §1
# [35] = target: Neu5Ac(a2-6)Gal(b1-4)GlcNAc(b1-2)Man(a1-6)[Man(a1-3)]Man(b1-4)GlcNAc(b1-4)GlcNAc
# How it was run: as §1
# [36] = target: Neu5Ac(a2-6)Gal(b1-4)GlcNAc(b1-2)[Neu5Ac(a2-6)Gal(b1-4)GlcNAc(b1-4)]Man(a1-3)[GlcNAc(b1-4)][Neu5Ac(a2-6)Gal(b1-4)GlcNAc(b1-2)[Neu5Ac(a2-6)Gal(b1-4)GlcNAc(b1-6)]Man(a1-6)]Man(b1-4)GlcNAc(b1-4)GlcNAc
# How it was run: as §1
# [37] = target: Neu5Ac(a2-6)Gal(b1-4)GlcNAc(b1-2)[Neu5Ac(a2-6)Gal(b1-4)GlcNAc(b1-4)]Man(a1-3)[GlcNAc(b1-4)][Neu5Ac(a2-6)Gal(b1-4)GlcNAc(b1-4)Man(a1-6)]Man(b1-4)GlcNAc(b1-4)GlcNAc
# How it was run: as §1
# [38] = target: Neu5Ac(a2-6)Gal(b1-4)GlcNAc(b1-2)[Neu5Ac(a2-6)Gal(b1-4)GlcNAc(b1-6)]Man(a1-6)[Neu5Ac(a2-6)Gal(b1-4)GlcNAc(b1-2)Man(a1-3)][GlcNAc(b1-4)]Man(b1-4)GlcNAc(b1-4)GlcNAc
# How it was run: as §1
# [39] = target: Neu5Ac(a2-6)Gal(b1-4)GlcNAc(b1-3)Gal(b1-3)GlcNAc
# How it was run: as §1
# [40] = target: Neu5Ac(a2-6)Gal(b1-4)GlcNAc(b1-3)Gal(b1-4)GlcNAc
# How it was run: as §1
# [41] = target: Neu5Ac(a2-6)Gal(b1-4)GlcNAc(b1-3)Gal(b1-4)GlcNAc(b1-2)Man(a1-3)[Neu5Ac(a2-6)Gal(b1-4)GlcNAc(b1-3)Gal(b1-4)GlcNAc(b1-2)Man(a1-6)]GalNAc
# How it was run: as §1
# [42] = target: Neu5Ac(a2-6)Gal(b1-4)GlcNAc(b1-3)Gal(b1-4)GlcNAc(b1-3)Gal(b1-4)GlcNAc
# How it was run: as §1
# [43] = target: Neu5Ac(a2-6)Gal(b1-4)GlcNAc(b1-3)Gal(b1-4)GlcNAc(b1-3)Gal(b1-4)GlcNAc(b1-2)Man(a1-3)[Neu5Ac(a2-6)Gal(b1-4)GlcNAc(b1-3)Gal(b1-4)GlcNAc(b1-3)Gal(b1-4)GlcNAc(b1-2)Man(a1-6)]GalNAc
# How it was run: as §1
binder,measurement,setting,value
B1,glycan array binding signal (z-score),[1],-0.274
same,glycan array binding signal (z-score),[2],-0.001
same,glycan array binding signal (z-score),[3],-0.289
same,glycan array binding signal (z-score),[4],-0.243
same,glycan array binding signal (z-score),[5],-0.111
same,glycan array binding signal (z-score),[6],-0.056
same,glycan array binding signal (z-score),[7],-0.222
same,glycan array binding signal (z-score),[8],-0.046
same,glycan array binding signal (z-score),[9],-0.263
same,glycan array binding signal (z-score),[10],0.765
same,glycan array binding signal (z-score),[11],9.86
same,glycan array binding signal (z-score),[12],0.016
same,glycan array binding signal (z-score),[13],0.013
same,glycan array binding signal (z-score),[14],-0.22
same,glycan array binding signal (z-score),[15],-0.246
same,glycan array binding signal (z-score),Neu5Ac(a2-3)GalNAc,-0.33
same,glycan array binding signal (z-score),[16],-0.337
same,glycan array binding signal (z-score),[17],0.011
same,glycan array binding signal (z-score),[18],-0.121
same,glycan array binding signal (z-score),[19],0.335
same,glycan array binding signal (z-score),[20],0.032
same,glycan array binding signal (z-score),Neu5Ac(a2-6)Gal,-0.18
same,glycan array binding signal (z-score),[21],-0.231
same,glycan array binding signal (z-score),Neu5Ac(a2-6)Gal(b1-4)Glc,-0.14
same,glycan array binding signal (z-score),[22],0.013
same,glycan array binding signal (z-score),[23],-0.235
same,glycan array binding signal (z-score),[24],-0.117
same,glycan array binding signal (z-score),[25],2.55
same,glycan array binding signal (z-score),[26],-0.148
same,glycan array binding signal (z-score),[27],-0.245
same,glycan array binding signal (z-score),[28],0.225
same,glycan array binding signal (z-score),[29],-0.189
same,glycan array binding signal (z-score),[30],-0.142
same,glycan array binding signal (z-score),[31],-0.099
same,glycan array binding signal (z-score),[32],-0.278
same,glycan array binding signal (z-score),[33],-0.04
same,glycan array binding signal (z-score),[34],-0.148
same,glycan array binding signal (z-score),[35],3.75
same,glycan array binding signal (z-score),[36],2.38
same,glycan array binding signal (z-score),[37],0.758
same,glycan array binding signal (z-score),[38],-0.296
same,glycan array binding signal (z-score),[39],-0.052
same,glycan array binding signal (z-score),[40],-0.238
same,glycan array binding signal (z-score),[41],1.28
same,glycan array binding signal (z-score),[42],0.087
same,glycan array binding signal (z-score),[43],0.104
